# Assay results as given in PubChem BioAssay AID1460 (National Center for Advancing Translational Sciences (NCATS), 2008).
# “And” between values parts separate entries of the source, which are not always exact repeats. Identical values can stand only once. The campaign covered roughly 270,000 compounds. About 5,800 (2.1%) were called active. The inconclusive results got no clear call from the source; some entries with a clear call stand among them for comparison. Calls come from the whole dose curve; as a rule, active = well fitted inhibition curve with a large enough effect; inconclusive = small, poorly fitted or top-dose-only effect; inactive = flat fitted curve, though single readings scatter. Potencies of inconclusive entries are doubtful fits and often do not repeat.
# Molecular target: Microtubule-associated protein tau (Homo sapiens) (UniProt P10636)
# Assay: qHTS for Inhibitors of Tau Fibril Formation, Thioflavin T Binding; note: nearly all actives have a fitted effect of over 55% in size
# Conditions: recombinant tau K18 P301L (four-repeat tau fragment), heparin-induced fibrillization, ThT fluorescence; series mostly up to 57.4 µM; activity, negative = inhibition: at the top concentration
# In short: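 Heparin-induced fibrillization of the P301L-mutant K18 repeat-domain fragment of human tau was followed by ThT binding in quantitative high-throughput format.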
# % is set by controls: 0 for no effect and ±100 for the full control effect; potency is the fitted concentration of half-maximal effect; tags give direction and shape of the fitted curve.
# Sequence of UniProt P10636 (P10636 whole entry, looked up): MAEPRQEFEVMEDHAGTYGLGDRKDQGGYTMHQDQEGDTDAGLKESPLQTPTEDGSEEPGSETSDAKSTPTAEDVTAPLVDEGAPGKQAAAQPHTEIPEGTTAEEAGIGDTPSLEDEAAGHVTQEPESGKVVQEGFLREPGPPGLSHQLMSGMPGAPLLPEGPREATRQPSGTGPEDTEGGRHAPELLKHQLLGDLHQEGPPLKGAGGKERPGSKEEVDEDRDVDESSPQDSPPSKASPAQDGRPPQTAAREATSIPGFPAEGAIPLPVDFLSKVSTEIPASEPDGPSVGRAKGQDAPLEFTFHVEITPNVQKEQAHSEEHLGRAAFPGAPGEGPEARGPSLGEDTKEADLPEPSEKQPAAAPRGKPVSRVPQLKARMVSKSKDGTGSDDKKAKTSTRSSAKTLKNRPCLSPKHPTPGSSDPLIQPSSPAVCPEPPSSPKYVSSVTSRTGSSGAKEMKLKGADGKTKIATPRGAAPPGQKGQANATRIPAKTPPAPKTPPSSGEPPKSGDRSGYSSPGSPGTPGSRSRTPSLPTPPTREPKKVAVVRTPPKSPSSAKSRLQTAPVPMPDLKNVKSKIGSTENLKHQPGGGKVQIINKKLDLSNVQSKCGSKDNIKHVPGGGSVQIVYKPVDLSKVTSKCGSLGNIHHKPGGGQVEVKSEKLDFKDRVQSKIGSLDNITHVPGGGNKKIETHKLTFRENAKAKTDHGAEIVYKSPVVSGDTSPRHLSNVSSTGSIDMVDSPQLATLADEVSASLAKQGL
Structure (SMILES),"activity, negative = inhibition",Potency
Cc1ccc(OCc2nc3ccccc3n2CC(C)C)cc1,inactive: -16.1%,–
CCc1cc(C(=O)Nc2c(C)nn(Cc3ccc(C)cc3)c2C)no1,inactive: -5.49%,–
Cc1[nH]c2ccccc2c1C(c1ccncc1)N1CCN(c2ccccn2)CC1 (stereo not drawn),–,"inconclusive: 15.8 µM [inhibitor, partial curve]"
Cc1ccc(Cn2c(SCC(=O)NCc3ccc(Cl)cc3)nc3ccsc3c2=O)cc1,inactive: 13.9%,–
CC(=O)NC1C(=O)N(CCc2ccccc2)c2ccc(Br)cc21 (stereo not drawn),inactive: -16.1%,–
CC(=O)c1ccc(OCCCC(=O)OCc2nnc(-c3ccc(Cl)cc3)o2)cc1,–,"inconclusive: 3.16 µM [inhibitor, partial curve]"
O=C(O)C(Cc1ccccc1)N1C(=O)/C(=C/c2cccc3ccccc23)SC1=S (stereo not drawn),–,active: 20 µM
CC1CCN(c2c(NCc3ccc(C(=O)N4CCc5ccccc54)cc3)c(=O)c2=O)CC1,inactive: -16.2%,–
Fc1cccc(-n2ncc(-c3nnnn3-c3ccccc3)c2C(F)(F)F)c1,inactive: 0.0128%,–
COC(=O)c1sccc1-c1ccc(/C=N/OC(=O)c2cccs2)o1,–,"inconclusive: 3.16 µM [inhibitor, full curve, poor fit]"
COc1ccc(N=C2S/C(=C\c3ccc(OC(C)C(=O)O)c(OC)c3)C(=O)N2CCc2c[nH]c3ccccc23)cc1 (stereo not drawn),–,active: 28.2 µM
COC(=O)CNC(=O)Nc1cc(C(=O)NCc2ccc(C)cc2)ccc1N1CCCC1,inactive: 3.31%,–
CN(C)c1ccc(/C=C/c2ccc3c4ccccc4ccc3[n+]2-c2ccccc2)cc1,–,active: 2 µM
CC(=O)c1ccc(NC(=O)c2noc(C(C)C)c2[N+](=O)[O-])cc1,–,"inconclusive: 25.1 µM [inhibitor, partial curve]"
CC(C)(C)NS(=O)(=O)c1ccc2nc(NC(=O)c3cccnc3)sc2c1,inactive: -0.953%,–
CC(=O)c1sc(N/N=C\c2cccc(Br)c2)nc1C,inactive: 13.5%,–
COCCn1c(-c2ccccc2)nc2oc3ccccc3c(=O)c2c1=O,inactive: -3.4%,–
c1coc(CNc2nc(N3CCCCC3)nc3ccccc23)c1,inactive: -11.6%,–
C/C(=N\N=C\c1ccc(N(C)C)cc1)c1cccc([N+](=O)[O-])c1,–,active: 1.26 µM
CC(C)CN(C(=O)CN1CCN(c2ccc([N+](=O)[O-])cc2)CC1)c1c(N)n(CC(C)C)c(=O)[nH]c1=O,–,"inconclusive: 25.1 µM [inhibitor, single point]"
CCOC(=O)c1c(C)c(-c2ccccc2)n(CC(=O)Nc2cc(OC)cc(OC)c2)c1C,inactive: -3.8%,–
COC(=O)c1ccc(CN2C(=O)C3CCCCC3C2=O)o1 (stereo not drawn),inactive: -16%,–
COc1ccc(OCC2Cc3c(-c4ccccc4)nc4c(c3CO2)CN(CCOc2ccccc2)CC4)cc1 (stereo not drawn),inactive: -4.32% [at 11.5 µM],–
CN1CCc2c(sc(/N=C/c3cccs3)c2C(N)=O)C1,–,active: 14.1 µM
COc1ccccc1/C=C/C(=O)NC(=S)N(C)C1CCCCC1,–,"inconclusive: 10 µM [inhibitor, partial curve]"

Structure (SMILES),"activity, negative = inhibition",Potency
Cc1ccc(C(=O)CSc2nnc(-c3ccccc3N)n2C)cc1,–,"inconclusive: 15.8 µM [inhibitor, partial curve, poor fit]"
CC1Cc2ccccc2N1C(=O)CSc1nc2ccccc2s1 (stereo not drawn),–,"inconclusive: 11.2 µM [inhibitor, partial curve]"
Cc1sc2nc3ccc(NCc4ccco4)nn3c(=O)c2c1C,–,"inconclusive: 15.8 µM [inhibitor, partial curve]"
N#CC1=C(N)Oc2c(O)cc3ccccc3c2C1c1ccsc1 (stereo not drawn),–,"inconclusive: 25.1 µM [inhibitor, single point]"
CN(C)c1ccc(C(CNC(=O)COc2ccc(Cl)cc2)N2CCOCC2)cc1 (stereo not drawn),–,"inconclusive: 4.47 µM [inhibitor, partial curve, poor fit]"
N#Cc1cc(Oc2cccc3cccnc23)c(-n2nnc3ccccc32)cc1C#N,inactive: -11.2%,–
Cc1ccc(N/N=C(\C#N)C(=N)N2CCCCCC2)cc1,–,"inconclusive: 39.8 µM [inhibitor, partial curve]"
CCn1c2ccccc2c2cc(C3C(C#N)=C(N)Oc4n[nH]c(COC)c43)ccc21 (stereo not drawn),–,active: 15.8 µM
O=C(CCS(=O)(=O)c1ccccc1)Nc1ccc(N2CCOCC2)cc1,inactive: -15.6%,–
CCOc1ccc(-n2c(C)cc(C(=O)CCl)c2C)cc1,–,"inconclusive: 31.6 µM [inhibitor, partial curve]"
CCCc1nc2ccccc2c(C(=O)OCC(=O)N2CCc3ccccc32)c1CC,–,"inconclusive: 20 µM [inhibitor, partial curve]"
Cc1nnc(N/N=C/c2cccc(OCc3ccc(Cl)c(Cl)c3)c2)n1N,–,active: 12.6 µM
COc1ccc(OC)c(C(=O)c2ccc(C(=O)c3cc(OC)ccc3OC)cc2)c1,–,"inconclusive: 11.2 µM [inhibitor, partial curve, poor fit]"
O=c1cc(-c2ccccc2)oc2cc(O)cc(O)c12,–,"inconclusive: 11.2 µM [inhibitor, partial curve, poor fit] and inconclusive: 5.62 µM [inhibitor, partial curve, poor fit]"
COc1ccc(/C=N/n2c(-c3cccs3)n[nH]c2=S)cc1,–,"inconclusive: 25.1 µM [inhibitor, partial curve, poor fit]"
COCCCNC(=O)Cn1c(=O)n(-c2ccc(C)cc2)c(=O)c2c1c1cc(C)ccc1n2C,inactive: -0.391%,–
CN1CCC2(CC1)C1CN(C)CC=C1C(C#N)=C(N)C2(C#N)C#N (stereo not drawn),–,"inconclusive: 35.5 µM [inhibitor, single point] and inconclusive: 39.8 µM [inhibitor, single point]"
CCOc1ccc(C(=O)Nc2ccc3c(c2)OCCO3)cc1[N+](=O)[O-],–,"inconclusive: 14.1 µM [inhibitor, partial curve]"
Cc1ccc2ccc(C(Nc3ccccn3)c3ccccc3)c(O)c2n1 (stereo not drawn),–,"inconclusive: 15.8 µM [inhibitor, partial curve] and inconclusive: 12.6 µM [inhibitor, partial curve]"
N#C/C(=C\c1ccc(N2CCOCC2)o1)c1ccccc1,–,active: 14.1 µM
COc1ccc(N2C(=O)C(Cl)=C(NCc3ccccc3)C2=O)cc1,–,"inconclusive: 28.2 µM [inhibitor, partial curve]"
COc1ccccc1/C=C/C=N/n1c(-c2ccncc2)n[nH]c1=S,inactive: -7.26%,–
Cc1cc(N2CCOCC2)nc2ccc(NC(=S)N3CCCCC3C)cc12 (stereo not drawn),–,active: 11.2 µM
COc1cc(CNC2CCCC2)c(Br)cc1OC1CCCC1,–,"inconclusive: 0.398 µM [activator, full curve, poor fit]"
O=C(Nn1c(O)c(C=C2N=c3ccccc3=N2)sc1=S)c1ccccc1Cl,–,active: 11.2 µM

Structure (SMILES),"activity, negative = inhibition",Potency
O=C(OC(C(=O)Nc1ccc(Cl)c(C(F)(F)F)c1)c1ccccc1)C1=COCCO1 (stereo not drawn),inactive: -4.1%,–
CCOC(=O)CSc1nc2cc3c(cc2c(=O)n1CCCC(=O)NCc1ccc2c(c1)OCO2)OCO3,inactive: 8.06%,–
CC(=O)c1c(C)[nH]c(C(=O)Nc2nc(-c3ccc(Cl)cc3)cs2)c1C,inactive: -12.3%,–
C/C=C/c1ccc(OCCN2CCc3ccccc3C2)c(OC)c1,–,"inconclusive: 17.8 µM [inhibitor, partial curve]"
Cc1cccnc1NC(=O)CCNS(=O)(=O)c1ccc2c(c1)c(=O)n(C)c(=O)n2C,inactive: -2.29%,–
Cc1ccc(NC(=O)Nc2ccccc2)cc1[N+](=O)[O-],–,"inconclusive: 5.01 µM [inhibitor, partial curve]"
COc1ccc(NCC(O)Cn2c(C)c(C)c3ccccc32)cc1 (stereo not drawn),–,"inconclusive: 3.98 µM [inhibitor, partial curve]"
Cc1ccccc1CS(=O)(=O)Cc1ccc(C(=O)NCCc2ccccc2)o1,inactive: 1.81%,–
Cc1ccc(CSc2nnc(NC(=O)C3COc4ccccc4O3)s2)cc1 (stereo not drawn),–,"inconclusive: 7.94 µM [inhibitor, partial curve]"
Cc1ccc(-n2c(C)cc(C(=O)COC(=O)c3ccc[nH]c3=O)c2C)cc1C,–,"inconclusive: 39.8 µM [inhibitor, single point]"
N#Cc1cccc(NC(=O)N2CCC(c3nc4c(nnn4Cc4cccc(Cl)c4)c(=O)[nH]3)CC2)c1,inactive: -8.79%,–
Cc1ccc(Nc2c(-c3ccc(C)cc3)nc3cnccn23)cc1,–,"inconclusive: 12.6 µM [inhibitor, partial curve]"
CSc1cccc(NC(=S)Nc2cc(C)ccc2C)c1,inactive: -1.37%,–
Cc1ccc(Nc2ncccc2C(N)=O)cc1[N+](=O)[O-],–,"inconclusive: 28.2 µM [inhibitor, single point]"
O=c1nc(NCc2ccco2)sc2ncccc12,inactive: 8.74%,–
CCN(CC)C(=S)SSC(=S)N(CC)CC,–,"inconclusive: 3.98 µM [inhibitor, partial curve] [middle of 4 runs]"
COc1ccc(CN(Cc2ccccn2)S(=O)(=O)c2ccc(-n3cnnn3)cc2)cc1,inactive: -13.9%,–
CC1=CC(C)(C)n2c(O)c(N=N)c3cc(C)cc1c32,–,active: 28.2 µM
CSCCCNC(=S)N1CCN(c2ccc(C(C)=O)cc2)CC1,–,"inconclusive: 8.91 µM [inhibitor, partial curve]"
N#Cc1c(N)nc2c3c(sc(=N)c2c1N)NC(=O)CC3c1ccccc1 (stereo not drawn),–,"inconclusive: 20 µM [inhibitor, partial curve]"
COc1ccc(C)cc1NC(=O)C(=O)NCCc1csc(-c2ccc(C)cc2)n1,inactive: -7.35%,–
C#CCNC(=O)C1=C[C@H](c2ccc(C(F)(F)F)cc2)C[C@H](OCc2ccc(CO)cc2)O1,–,"inconclusive: 39.8 µM [inhibitor, single point]"
Cc1cc2nc3ccc(=[N+](C)C)cc-3sc2cc1N,–,active: 1.12 µM
